Reference: the supplement of paper PMC10126150
Values marked as one replicate rest on one cluster of the flow cell; about a third of the high ones do not repeat.

Test system: ATP
Assay: switch fluorescence ratio, 500 uM ATP over buffer (Cy3 cluster intensity, sum of 5 cycles each) (fold (ratio)); higher = stronger signal-on switching upon ATP binding; sequences stand for … in TCGTCGGCAGCGTCAGATGTGTATAAGAGACAGTTTTTTTTTTTTTTTTTTTTTTTTT…TC
Conditions: aptamer strand: ATP DNA aptamer (quencher-CACCTGGGGGAGTATTGCGGAGGAAGG + anchor), 100 nM annealed; ATP concentration: 500 uM; one replicate
Method in brief: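 Cy3-labelled switching-strand clusters on a modified Illumina MiSeq flow-cell were annealed to 100 nM quencher-labelled ATP aptamer, imaged in selection buffer, then imaged after 15 min with 500 uM ATP at 22 °C. Five buffer/ATP cycles ran, with NaOH stripping and re-annealing between them. The fluorescence ratio is summed target-cycle over summed buffer-cycle Cy3 intensity per cluster, averaged per switch-domain sequence. Clusters outside 100-1000 RFU were excluded.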
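Note: ATP exposure 15 min at 22 °C before imaging.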

Row | Sequence | switch fluorescence ratio
1 | GCAAGAAACA | 1.01
2 | GCAAGATCCG | 1.12
3 | GCAAGCATTA | 1.14
4 | GCAAGCGGAT | 1.06
5 | GCAAGCTCTC | 1.76
6 | GCAATAGTGC | 1.69
7 | GCAATCATTG | 1
8 | GCAATCGTAG | 1.12
9 | GCAATGATCG | 1.3
10 | GCAATTTAAT | 1.01
11 | GCAATTTTTA | 1.01
12 | GCACAAAGCG | 1.04
13 | GCACACCGCA | 1.16
14 | GCACACTAGA | 1.01
15 | GCACATAAGA | 1.01
16 | GCACCAGTG | 1.4
17 | GCACCATCCG | 1.16
18 | GCACCCCACA | 1.24
19 | GCACGAACAA | 1.37
20 | GCACGACCTT | 1.23
21 | GCACGACGGG | 0.99
22 | GCACGATTCG | 1.04
23 | GCACGCCGAC | 1.21
24 | GCACGGAAT | 1.04
25 | GCACTCAGGT | 1.13

Row | Sequence | switch fluorescence ratio
26 | GCACTCCTGT | 0.954
27 | GCACTGCTTC | 1.1
28 | GCACTGTAGC | 1.13
29 | GCACTGTTGA | 0.971
30 | GCACTTGGTT | 1.05
31 | GCAGAATATC | 1.05
32 | GCAGACTTGA | 0.984
33 | GCAGAGAATT | 0.97
34 | GCAGAGTTTT | 1.04
35 | GCAGCAAGTT | 1.74
36 | GCAGCATTT | 1.14
37 | GCAGCGATAT | 6.4
38 | GCAGCTAAC | 2.73
39 | GCAGCTCCG | 1.05
40 | GCAGCTTTGT | 1.04
41 | GCAGGCAGTA | 1.06
42 | GCAGGGAACG | 1.08
43 | GCAGGGAGGA | 0.963
44 | GCAGGGAGTA | 0.952
45 | GCAGGGGTCA | 0.992
46 | GCAGGTATAT | 1.02
47 | GCAGGTGGTT | 1.18
48 | GCAGGTGTCA | 1.27
49 | GCAGGTTTT | 0.975
50 | GCAGTCGCAC | 0.992

Row | Sequence | switch fluorescence ratio
51 | GCAGTCGCTT | 0.978
52 | GCAGTCTTCC | 1
53 | GCAGTGGCG | 1.01
54 | GCAGTTTTTA | 1.01
55 | GCATAAAGTA | 0.975
56 | GCATAACTAT | 1.07
57 | GCATAAGGTC | 1.03
58 | GCATAATATT | 0.992
59 | GCATACAGTG | 1.03
60 | GCATACTCGG | 1.56
61 | GCATACTTCG | 1.19
62 | GCATATTGTC | 0.979
63 | GCATATTTAC | 1.23
64 | GCATCAAACG | 1.03
65 | GCATCAGGG | 1.04
66 | GCATCAGGTC | 1.02
67 | GCATCGAATC | 1.04
68 | GCATCGATTG | 0.981
69 | GCATCGCCTT | 0.999
70 | GCATCGCGGT | 0.977
71 | GCATCTAGGG | 0.966
72 | GCATGAATGG | 0.988
73 | GCATGACGTC | 1.01
74 | GCATGATGGT | 1.01
75 | GCATGGCAAA | 1.02

Row | Sequence | switch fluorescence ratio
76 | GCATGGCCAT | 0.993
77 | GCATGGTGAG | 1.04
78 | GCATGTAGAC | 0.982
79 | GCATGTTGTA | 1.01
80 | GCATTAAGAG | 0.982
81 | GCATTAATAT | 1.11
82 | GCATTACTAG | 1.24
83 | GCATTATTA | 1.01
84 | GCATTCAACT | 0.969
85 | GCATTCCAGA | 1.01
86 | GCATTTTTGC | 0.905
87 | GCCAAAAAAC | 1.08
88 | GCCAAAGGGG | 1.05
89 | GCCAAATGTT | 0.988
90 | GCCAAGGGGC | 1.04
91 | GCCAATATTT | 0.99
92 | GCCAATGTTG | 1
93 | GCCACACGTG | 0.986
94 | GCCACAGTTA | 1.02
95 | GCCACATCAC | 1.27
96 | GCCACCCGCG | 1.2
97 | GCCACCTCGG | 0.998
98 | GCCACTGAGG | 1.02
99 | GCCACTTTCG | 0.995
100 | GCCAGAGCAT | 1.07
